The full ranking holds about 110,000 compounds; the median of “z-score” is about -0.1, and the highest 2% start at about 2. The list shows a part of the results. Active and inactive are the calls of the source.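 Rule for the calls: active = z-score in the third read window above 3 or below -3; inactive = the rest.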

For the assay, the target named is Metabotropic glutamate receptor 8 (Rattus norvegicus) (UniProt P70579). Briefly: mGluR8 Gi/Go-coupled signaling modulation – cell-based, rat, thallium flux, HTS, primary screen (AID 488969). The conditions noted are these: HEK293 rat mGluR8, GIRK (G protein-gated inwardly rectifying potassium channel) thallium flux, FluoZin2; at 10 µM; stronger effect = higher value; submaximal glutamate (EC20) added with thallium.
Chain of UniProt P70579 (P70579 whole entry, looked up): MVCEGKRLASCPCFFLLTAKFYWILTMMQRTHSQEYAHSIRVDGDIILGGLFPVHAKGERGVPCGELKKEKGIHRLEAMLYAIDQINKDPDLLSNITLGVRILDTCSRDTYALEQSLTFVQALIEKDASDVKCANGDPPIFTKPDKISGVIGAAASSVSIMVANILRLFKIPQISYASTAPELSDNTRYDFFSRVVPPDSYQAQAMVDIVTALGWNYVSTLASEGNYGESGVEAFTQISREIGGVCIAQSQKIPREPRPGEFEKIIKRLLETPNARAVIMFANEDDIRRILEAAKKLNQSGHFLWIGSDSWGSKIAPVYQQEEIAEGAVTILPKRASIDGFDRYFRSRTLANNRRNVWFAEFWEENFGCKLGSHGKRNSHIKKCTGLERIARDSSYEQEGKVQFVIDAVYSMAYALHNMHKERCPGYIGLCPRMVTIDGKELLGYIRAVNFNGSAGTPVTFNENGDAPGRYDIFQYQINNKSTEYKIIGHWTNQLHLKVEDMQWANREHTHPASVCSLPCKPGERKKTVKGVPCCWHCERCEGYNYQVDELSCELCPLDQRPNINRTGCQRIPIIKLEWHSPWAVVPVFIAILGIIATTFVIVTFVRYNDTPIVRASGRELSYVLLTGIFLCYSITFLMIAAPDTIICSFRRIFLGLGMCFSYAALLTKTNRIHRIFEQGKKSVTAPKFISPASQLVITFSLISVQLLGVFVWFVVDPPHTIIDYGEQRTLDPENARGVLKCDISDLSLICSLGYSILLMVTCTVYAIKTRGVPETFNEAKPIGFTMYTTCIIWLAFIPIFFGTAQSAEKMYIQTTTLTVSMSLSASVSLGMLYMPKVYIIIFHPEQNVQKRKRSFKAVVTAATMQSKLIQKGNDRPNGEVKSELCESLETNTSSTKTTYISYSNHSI
`CCOC(=O)C(C(=O)NCc1cccc(OC)c1)c1ncc(C(F)(F)F)cc1Cl` (centres undefined): the z-score is 1.13. For the molecule `COc1ccc(NC(=O)CSc2nnc(N)s2)cc1`, the z-score was -0.131. In the case of `COc1cc(/C=N/NC(N)=O)cc(Br)c1OCc1ccccc1C` it was 0.308. In the case of `O=C(c1ccccc1)N1CN2CN(C(=O)c3ccccc3)CC([N+](=O)[O-])(C2)C1` it was 0.182; in that of `COc1ccc(C(=O)COC(=O)CCN2C(=O)C3C4CC(C(Br)C4Br)C3C2=O)cc1` (centres undefined), 0.166; in that of `N#Cc1c(SCC(N)=O)nsc1SCc1ccccc1Cl`, 1.08.

In the case of `CCCC(C)NC(=O)c1ccc(C2SCC(=O)N2Cc2ccco2)cc1` (centres undefined), the z-score turned out to be 0.33. The molecule `Cc1cnnc2c1-c1nonc1CC2` yielded a z-score of 0.154. For `c1ccc2[nH]c(SCc3cscn3)nc2c1` the value was 0.00573; for `CCOC(=O)c1ccoc1CSCc1ccc(C(=O)OC)o1`, -0.112; for `COc1ccc(OC)c(CNC(=O)C2CCCN(C(=O)N(C)C)C2)c1` (centres undefined), 0.0878. In the case of `O=C(C1CCN(S(=O)(=O)c2cnc[nH]2)CC1)N1CCN(c2ncccn2)CC1` it was 0.334.

`C=CCNCCCOc1ccc(C)cc1Br` gave a z-score of 0.425. Take `CCCCOc1ccc(-n2nc(C)cc2C)nn1`: the z-score is -0.141.

As for `O=C(NC1CC1)c1ccc(CSCc2cccc(F)c2)o1`, the z-score was active: 4.11. For `Cc1ccc(C)c(-n2c(Cc3cc(=O)[nH]c(=O)[nH]3)nnc2SCC(=O)NCc2ccco2)c1`, the z-score is -0.506. In the case of `O=C(C1COc2ccccc2O1)N1CCOCC1` (centres undefined) it was -0.532; in that of `O=S(=O)(Nc1ccc2c(c1)OCCO2)c1ccc2oc3ccccc3c2c1`, 1.03.

Regarding `CCCCSc1nc2c(cnn2-c2ccc(C)c(C)c2)c(=O)[nH]1`, the z-score worked out at 0.044. Consider `CCOC(=O)N1CCN(C(=O)C(C)SCc2ccccc2)CC1` (centres undefined), for which the z-score is 0.101.

Turning to `O=C(Nc1nc2ccccc2[nH]1)c1ccc(F)c(S(=O)(=O)N2CCOCC2)c1`, the z-score was -0.0727.

`COCc1c(C#N)c(NCCc2ccccc2)nc(C)c1[N+](=O)[O-]` returned a z-score of -0.0955. For `COc1cccc(Cn2nnc(C(=O)NCc3ccccc3Cl)c2N)c1` the value was -0.0514; for `CN1C(=O)C2(c3ccccc31)N(C)CC(c1ccccc1)C21SC(=S)N(Cc2ccco2)C1=O` (centres undefined), -0.0787; for `Cc1ccc(-c2nnc(SCC(=O)N3c4ccccc4NC(=O)C3(C)C)n2N)cc1`, -1.66.

`O=C(Nc1ccc(N2CCCC2)cc1)C(c1ccccc1)c1ccccc1` showed a z-score of -0.177. Molecule `CCc1cc(C(c2ccc(F)cc2)N2CCOCC2)c(NC(=O)c2ccccc2)s1` (centres undefined) gave a z-score of -0.163. In the case of `COc1ccc(CCn2c(=N)c(C(=O)N3CCN(C)CC3)cc3c(=O)n4ccccc4nc32)cc1` it was -0.214. In the case of `COc1ccc(-c2nnc(SCc3ccccn3)n2C)cc1` it was 0.00196.

For the molecule `COc1ccc2nc(/N=C/c3c(C)[nH]n(-c4ccc(C)cc4C)c3=O)sc2c1`, the z-score was active: 15.7.

In the case of `CC(C)(C)NC(=O)c1cccc(NC(=O)c2ccco2)c1`, the z-score was 0.16. The molecule `Cc1ccc2cc(C#N)c(SCc3nnc(-c4ccccc4[N+](=O)[O-])o3)nc2c1` returned a z-score of -0.164. Molecule `Cc1onc(-c2ccccc2Cl)c1C(=O)NCc1ccccc1` showed a z-score of 0.341. For `COCC(C)n1c(C)cc(C(=O)COC(=O)c2nc3nc(C)cc(C)n3n2)c1C` (centres undefined) the value was -0.517; for `O=C(Nc1cc(Sc2ccccn2)cc([N+](=O)[O-])c1)c1cccc(F)c1`, -0.502; for `O=C(Nc1nnc(C23CC4CC(CC(C4)C2)C3)s1)c1ccc(N2C(=O)CCC2=O)cc1`, -0.327. For `CCCCNC(=O)CN(C1CCCCC1)S(C)(=O)=O` the value was 0.405; for `Cn1c(=O)c2c(ncn2CC(=O)N2CCN(c3cccc(Cl)c3)CC2)n(C)c1=O`, -0.38; for `O=C(O)CCCC(=O)Nc1ccc(C(=O)NCc2cccnc2)cc1`, 1.8.

For the molecule `S=C(Nc1cccc(Cl)c1)N1CCOCC1`, the z-score was -0.312. `COc1ccc(-n2nc3cc(C)c(NC(=O)c4cccnc4)cc3n2)cc1` gave a z-score of 0.506.

Consider `O=C(c1cc2c(s1)CCCC2)n1cccn1`, for which the z-score is -0.397. For `Cc1ccc(C2CC2c2n[nH]c(=S)n2-c2ccc(C)cc2)cc1` (centres undefined) the value was 2.34; for `Cc1ccc(-c2[nH]ncc2/C=N/n2c(COc3ccccc3)nc3ccccc3c2=O)cc1`, -0.0421; for `CC(OC(=O)Cc1c(F)cccc1Cl)C(=O)NCCC1=CCCCC1` (centres undefined), 0.0847. In the case of `O=C(O)CCC(=O)N1CCN(c2nc(-c3ccccc3Cl)c3cc(Br)ccc3n2)CC1` it was -0.623. `Cc1ccc(S(=O)(=O)/C(C#N)=C/c2c(N3CCC(C(N)=O)CC3)nc3ccccn3c2=O)cc1` showed a z-score of -0.315. Consider `O=c1cc(-c2ccccc2F)oc2ccccc12`, for which the z-score was -0.341. For `CC(C)c1ccc(CCNC(=O)c2ccc([N+](=O)[O-])cc2)cc1` the value was -0.0486; for `CCc1ccc(NC(=O)CC2C(=O)NCCN2C(=S)Nc2ccccc2)cc1` (centres undefined), -0.127; for `Cc1cc(SCC(=O)Nc2c(C)n(C)n(-c3ccccc3)c2=O)n2c(nc3ccccc32)c1C#N`, 0.342. For `Cc1ccc(S(=O)(=O)CCc2nnc(NC(=O)c3cccs3)s2)cc1` the value was 0.0716; for `CC1=CC=CN2CC(O)CN=C12` (centres undefined), -0.219. For the molecule `N#Cc1c(-c2cccs2)nc(SCC(=O)c2cccs2)[nH]c1=O`, the z-score is -0.648.

Turning to `Cc1onc(-c2ccccc2)c1C(=O)Nc1cccc(OC(C)C)c1`, the z-score came out at 0.45. For `O=S(=O)(Nc1cccc(-c2nc3cccnc3s2)c1)c1ccc2c(c1)OCCO2` the value was -0.38; for `Clc1ccc(Nc2nc(-c3cccnc3)cs2)cc1`, -0.11; for `COC(=O)CSc1[nH]c(=O)cc(C)c1C#N`, -0.145. As to `CC/C(=N\NC(=O)CSCc1ccccc1Br)c1ccc2c(c1)OCCO2`, the z-score turned out to be 0.132. In the case of `COc1ccc(CCNC(=O)CCCCCN2C(=O)c3ccccc3C2=O)cc1` it was 0.18; in that of `CCNC(=O)COc1ccc(S(=O)(=O)Nc2ccccc2)cc1`, 0.695; in that of `Cc1ccc(N2CCN(c3ccc(C)cc3)C2c2cccnc2)cc1`, 0.0674. `COc1ccc(OCCCC(=O)Oc2ccc(OC)cc2)cc1` returned a z-score of -0.331. In the case of `O=C(CN1CCN(Cc2ccccc2)CC1)NC(=O)NC1CCCCC1` it was -0.456. For `COc1ccccc1/C=C/C(=O)NCC(=O)N/N=C/c1cc(Br)ccc1OC` the value was -0.268; for `CC(C)(CO)NS(=O)(=O)c1ccc2c(c1)oc(=O)c1cc(S(=O)(=O)NC(C)(C)CO)ccc12`, -0.0653; for `OCCNC1=NCCN1`, -0.23. On to `Cc1cc(O)c(C(C[N+](=O)[O-])c2ccc(Cl)cc2Cl)c(=O)o1` (centres undefined), for which the z-score was active: -4.08. The molecule `Cc1cccc2c3nc4ccccc4nc3n(CCCN3C(=O)c4ccccc4C3=O)c12` displayed a z-score of 0.773. Molecule `CCCOc1ccc(/C(O)=C2/C(=O)C(=O)N(CCCn3ccnc3)C2c2cccs2)cc1` (centres undefined) displayed a z-score of -0.299. For `CCN(CC)C(=O)CSc1ncnc2c1cnn2Cc1ccccc1` the value was 0.13; for `COC(=O)C1=C(C)NC2=C(C(=O)CC(C)(C)C2)C1c1ccsc1` (centres undefined), 0.803. For `COC(=O)c1ccccc1NC(=O)N1CCCC1` the value was 0.518; for `CCOC(=O)C1CCCN(CC(O)COc2ccc(OC)cc2C(C)(C)C)C1` (centres undefined), 0.707. For the molecule `C=CCOC(=O)C1=C(C)NC(SCC(=O)OCC)=C(C#N)C1c1ccc(O)c(OC)c1` (centres undefined), the z-score was -0.622. For `Cc1ccc(C(=O)NC(C)c2ccc(F)cc2)cc1` (centres undefined) the value was -0.249; for `COc1ccc2nc(N3CCOCC3)cc(C)c2c1`, 0.0652; for `Cc1ccnc(N/C=C(\C#N)c2nc(-c3cccc(Br)c3)cs2)c1`, -0.134. `CCC(C)(C)n1nnnc1C(c1ccc2ncccc2c1)N1CCN(Cc2ccc3c(c2)OCO3)CC1` (centres undefined): the z-score is -0.494.

In the case of `COc1ccc2c(c1)CCc1c(C(=O)N3CCCc4ccccc43)noc1-2`, the z-score is -0.446. In the case of `COC(=O)C(CC(C)C)NC(=O)c1ccc([N+](=O)[O-])c(C)c1` (centres undefined) it was 2.9; in that of `COCCNC(=O)CCn1c(=O)oc2ccccc21`, 0.385.

The molecule `CCOC(=O)Cn1nnc2c(sc3nc4c(c(-c5ccc(Cl)cc5)c32)CCC4)c1=O` registered a z-score of -0.217. On to `CC(C)c1ccc(/C=c2\sc3nc(-c4ccncc4)nn3c2=O)cc1`, for which the z-score is -0.232. `CCn1cc(CNC(=O)c2c(-c3c(Cl)cccc3Cl)noc2C)c(C)n1` had a z-score of 1.02. For `CC(C)c1ccccc1-n1c(SCC(=O)N2CCc3ccccc3C2)nc2ccccc2c1=O` the value was -0.419; for `Cc1ccc(-n2c(C)c3c(C)nnc(C)c3c2C)cc1C`, -0.385. For `Cc1ccccc1OC(=O)n1c(=S)oc2cc(Cl)ccc21` the value was 1.42; for `Cc1oc2c(c1C(=O)NCCCC(=O)O)CCCC2`, -0.129; for `CC(C)CCOC(=O)/C(=C/c1ccco1)NC(=O)/C=C/c1ccccc1`, -0.342. In the case of `Cn1ccnc1Sc1ccc(/C=N/NC(=O)c2ccccc2[N+](=O)[O-])cc1[N+](=O)[O-]` it was -0.639; in that of `CCOC(=O)N1CCN(C(=O)CSCc2ccccc2)CC1`, -0.13; in that of `CC1(C)C(=O)N(OCc2ccccc2)C(C)(C)C(=O)N1OCc1ccccc1`, -0.427. Consider `COc1ccccc1-n1cnc2cc(C(=O)NCC3CCCO3)ccc21` (centres undefined), for which the z-score is -0.481. In the case of `COc1cc(-c2nc(-c3ccc(Br)o3)no2)cc(OC)c1OC` it was -0.294; in that of `CC(=O)N(Cc1ccc(F)cc1)C1=C(NCc2ccccc2)C(=O)c2ccccc2C1=O`, 2.03. The molecule `O=C(O)CC1NC(=O)N(c2ccccc2)C1=O` (centres undefined) yielded a z-score of -0.116. In the case of `FC(F)(F)c1ccc2nnc(-c3c(Cl)cccc3Cl)n2c1`, the z-score is active: -3.58.

Take `CCOC(=O)c1oc2cc(C)cc(O)c2c(=O)c1-c1csc(C)n1`: the z-score was -0.268. On to `COc1cc2c(cc1OC)C(c1ccccc1F)OC(=O)C2` (centres undefined), for which the z-score was -0.198. For `Cc1ccc(CNc2ccc3c(c2)OCO3)c(C)c1` the value was -0.493; for `O=C1NC(=O)C(CC(=O)N(Cc2ccco2)C2(C(=O)NC3CCCC3)CCCCC2)N1` (centres undefined), -0.354. The molecule `c1ccc(Cc2nnc(Sc3ccccc3)c3ccccc23)cc1` came in with a z-score of -0.622. For `CC(=O)c1cccc(S(=O)(=O)N(CCCO)Cc2cc3ccc(C)cc3[nH]c2=O)c1` the value was -0.396; for `CN(CCO)c1cc(Sc2nc3ccccc3s2)c2nonc2c1[N+](=O)[O-]`, 0.935. `CCSC1=N/C(=C\c2ccccc2)C(=O)N1`: the z-score was -0.297. `COc1ccc(CCNC(=O)CSc2nc3cc(Cl)ccc3o2)cc1OC` gave a z-score of -0.127.

`COC(=O)c1ccc(Cn2nnc3ccccc3c2=O)o1` came in with a z-score of -0.379.

`Cc1cc(C)cc(OCC(=O)NC2=NCCS2)c1` displayed a z-score of -0.0355.

These data come from PubChem BioAssay AID488969 (Vanderbilt High Throughput Screening Facility, 2010).
